From article PMC11945542 (Viruses, 2025) come the findings set out here.

One data set has as its system SARS-CoV-2. It is filed as cell-based. The conditions noted are these: VeroE6 cells, plaque reduction assay, 65 h. (In general: In a plaque reduction assay, fewer plaques than in the control indicate reduced infectivity or spread.)

Consider `CNC(=O)c1cc(Oc2ccc(NC(=O)Nc3cc(C(F)(F)F)ccc3-n3cncn3)cc2)ccn1` [Compound 1], for which, in the data set on SARS-CoV-2, the “antiviral activity against SARS-CoV-2 (in words)” value is given as “dose–response antiviral activity”.
In the case of `CNC(=O)c1cc(Oc2ccc(NC(=O)Nc3cc(C(F)(F)F)ccc3-n3ccnc3)cc2)ccn1` [Compound 2], the “antiviral activity against SARS-CoV-2 (in words)” value in the data set with SARS-CoV-2 is reported as “low activity”.
Turning to `O=C(Nc1ccc(Oc2ccncc2)cc1)Nc1cc(C(F)(F)F)ccc1-n1cncn1` [Compound 3], the “host cell toxicity (visual)” value with VeroE6 cells is listed as “displayed host cell toxicity”.
